Publication PMC12040169 (PLOS Biology, 2025)
The list shows a part of the results.

test system: T1, C. trachomatis L2/434/Bu expressing GFP (CTL2-GFP); design: species or system HeLa; C. trachomatis total inclusion area by high-content imaging, normalised to DMSO; conditions: total inclusion area; 28.5 h, 10 µM; inhibitor
T1 construct: L2/434/Bu GFP intracellular growth in HeLa cells
Method in brief: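 High-content imaging followed the bulk GFP/resorufin measurement: fixed, Hoechst-stained cells were scored for GFP inclusions and host nuclei per well. Total inclusion area and count served as growth proxies, nuclei number as the viability proxy. MIC calculation matched the bulk assay.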

SMILES | % of control remaining
N#CCCCN1CCC(Oc2nccnc2OCc2ccc(Cl)cc2Cl)CC1 [CBK161568] | 78.6809
CC1(C)CC(=O)c2sc(NC(=O)c3cccc(N4C(=O)CCC4=O)c3)nc2C1 [CBK287565] | 79.8395
CC1CCN(Cc2c(-c3cccnc3)[nH]c3cccnc23)CC1 [CBK281494] | 88.9482
O=c1c2c3c(sc2ncn1CC(O)CO)CCCC3 (stereo not drawn) [CBK269448] | 68.815
Cc1cc(C)c(CNC(=O)N(C)C(C)c2ccncn2)cn1 (stereo not drawn) [CBK307192] | 90.2145
COC(=O)CC(NC(=O)c1cccc(NC(C)=O)c1)c1cccs1 (stereo not drawn) [CBK304537] | 71.1361
Cc1csc(C(Cc2ccsc2)NC(=O)C2CC3C=CC2O3)n1 (stereo not drawn) [CBK285108] | 86.6887
C=Cn1cc(CN2CCCN(Cc3cccc(F)c3)CC2)c(C)n1 [CBK282594] | 106.683
O=C(Nc1cc(Cl)ccc1Cl)C1CN(S(=O)(=O)c2ccccc2)CCN1S(=O)(=O)c1ccccc1 (stereo not drawn) [CBK267004] | 94.8979
O=C(Nc1ccccc1N1CCNCC1)c1cccs1 [CBK029443T] | 80.1913
Cc1ccc(S(=O)(=O)Cc2ccc(C(=O)Nc3cccc(-c4cnc5ccccc5n4)c3)cc2)cc1 [CBK268589] | 108.535
Cc1ccc2c(c1)C(C[C@H]1CN(C(=O)c3ccco3)CC[C@H]1CC(=O)O)=NCC2 [CBK289162] | 96.4135
Cn1nc(C2CCN(C(=O)c3cccc(F)c3)CC2)c2cccnc21 [CBK284898] | 100.46
c1ccc(-c2nc(N3CCOCC3)n3ccccc23)cc1 [CBK014407] | 107.27
CCc1nc2cc(NC(=O)c3cc(C4CC4)nn3C)ccc2n1C [CBK283275] | 77.2603
O=C(Nc1ccccn1)c1nccnc1-c1ccc(COc2ccccc2)cc1 [CBK050835] | 93.0445
CC1=NN(C(=O)CSCc2ccccc2)C(O)(c2ccc(Cl)cc2)C1 (stereo not drawn) [CBK267136] | 92.1872
O=C1NC2=C(C(=O)N(CCN3CCCC3)C2)C(c2cccc(F)c2)N1 (stereo not drawn) [CBK282365] | 67.567
COc1cccc(CCNC(=O)CCN2C(=O)CCC2=O)c1 [CBK023150] | 28.1208
Cn1cnnc1CCC(=O)NCC1CCN(c2ccccc2F)C1 (stereo not drawn) [CBK307587] | 58.9233
CCc1nc2c(OCCOC)cccn2c1N(CCOC)C(C)=O [CBK147845] | 117.069

SMILES | % of control remaining
Cc1nc(S(=O)(=O)CC2CCCO2)n(CC(C)C)c1C (stereo not drawn) [CBK304882] | 72.7236
COC(=O)c1cc(OC)c(OC)cc1NC(=O)C1CCC1C(=O)O (stereo not drawn) [CBK057084] | 105.105
OCCc1ccc(Oc2ncc(C(F)(F)F)cc2Cl)cc1 [CBK161643] | 106.475
CC(Cc1cccs1)NC(=O)C(C)Cn1cccn1 (stereo not drawn) [CBK283250] | 113.19
Cc1ccc(-c2nnc(CNC(=O)Cc3ccccc3F)o2)s1 [CBK284644] | 108.603
CS(=O)(=O)c1ccc(-c2cccc(COC3CCN(C(=O)Cc4ccc(Cl)cc4)CC3)c2)cc1 [CBK149504] | 72.9157
CC(=O)Nc1n[nH]c(SCCc2ccccc2)n1 [CBK262514] | 105.094
CC(C)(C)NC(=O)Cn1ccc2ccnc(-c3cccs3)c21 [CBK284737] | 116.073
CCC(C)NC(=O)Cn1cccc2cc(C3CCNCC3)nc1-2 (stereo not drawn) [CBK284681] | 100.611
Fc1cc(Br)ccc1-c1cn(-c2ccc3[nH]ccc3c2)nn1 [CBK113146] | 50.2147
O=C(NCCN1CCOCC1)N(c1ccccc1)c1ccccc1 [CBK270057] | 109.569
O=c1[nH]c(/C=C/c2cc(Br)ccc2OCc2cccc3ccccc23)c([N+](=O)[O-])c(=O)[nH]1 [CBK268052] | 75.8741
Cc1ccc2[nH]c(Cc3ccc(NC(=O)CCc4nc5ccccc5[nH]4)cc3)nc2c1 [CBK285801] | 126.286
CC(C)(C)c1ccc(S(=O)(=O)N2CCCC[C@H]2COC(=O)c2nccnc2C(=O)O)cc1 [CBK200065] | 101.48
Cn1cc(CC2CCN(Cc3ccc(Oc4cnccn4)cc3)C2)cn1 (stereo not drawn) [CBK304188] | 102.865
CSCCCNC(=O)c1ccc2[nH]ccc2c1 [CBK149056] | 102.221
N[C@H](CSCc1ccccc1)C(=O)Nc1ccc([N+](=O)[O-])cc1 [CBK074824] | 75.4909
Cc1ncc([N+](=O)[O-])n1CC(=O)NC1CCCCCC1 [CBK269194] | 131.58
COc1ccccc1-c1nccnc1OCc1cccs1 [CBK106819] | 78.6916
CC(C)(C)NC(=O)Cn1cncc1-c1cnn(-c2ccccc2)c1 [CBK281697] | 75.5104
COC(=O)c1cccn2cc(CN3CCOC4CCCCC43)nc12 (stereo not drawn) [CBK304949] | 59.2051

SMILES | % of control remaining
Clc1nc2ccccc2nc1N1CCNCC1 [CBK003880] | 99.471
CCOCCCNc1nc2c(c(=O)[nH]c(=O)n2C)n1CCC(C)C [CBK287968] | 127.884
COc1ccc(Nc2ccc(-c3ccc4ccccc4c3)cn2)cn1 [CBK037744] | 86.0211
NC(=O)CN1CCC(Oc2nccnc2OCC2COc3ccccc3O2)CC1 (stereo not drawn) [CBK082987T] | 106.151
Cn1c(=O)c2c(nc(NCCO)n2CCc2ccccc2)n(C)c1=O [CBK267497] | 97.8977
COc1ccc(-c2cc(C(=O)N3CCN(C(C)=O)CC3)cnc2-c2ccc(Cl)cc2)cc1 [CBK037577] | 91.6474
COc1cccc(C(=O)Oc2ccc3c(=O)c(-c4nc5ccccc5s4)c(C)oc3c2)c1 [CBK265540] | 94.5598
CC(=O)Nc1c(C)ccc(S(=O)(=O)N2CCOCC2)c1C [CBK034327] | 54.3504
Nc1nn2c(-c3cccc(Cl)c3)nnc2s1 [CBK288122] | 79.9389
COc1ccc(-c2noc([C@@H]3Cc4[nH]cnc4CN3C(=O)Nc3ccc(C)cc3)n2)cc1 [CBK288968] | 89.9769
O=C1CSC2(C(=O)Nc3ccc(Br)cc32)N1c1cccc([N+](=O)[O-])c1 (stereo not drawn) [CBK093451] | 93.4479
O=C(Cc1c[nH]cn1)N1CCN(c2ncccn2)CC1 [CBK144527] | 90.9957
COc1cc(CN2CCN(Cc3ccncc3)CC2)cc(OC)c1O [CBK263401] | 104.224
O=C(Nc1ccc(N2CCNCC2)nc1)C1(c2ccccc2)CCCCC1 [CBK028269T] | 120.018
Cc1ccc2nsnc2c1NC(=O)COc1ccccc1F [CBK269420] | 50.7542
N/C(Cc1ccc(Cl)cc1Cl)=N\OC(=O)c1cccc([N+](=O)[O-])c1 [CBK264317] | 100.513
c1ccc(CCN2CCC(n3cnc4cccnc43)CC2)cc1 [CBK283581] | 88.9219
CCC(CO)Nc1cncc(-c2cccc(/C=C/C(=O)O)c2)n1 (stereo not drawn) [CBK065569] | 95.0077
Cc1ccc(-c2nccnc2OC2CCCCC2)c(C)c1 [CBK106983] | 89.5135
CCN(Cc1ccccc1)C(=O)NCCCSC [CBK155214] | 109.525
Cc1csc2c(N3CCC(OCCN4CCCC4)CC3)ncnc12 [CBK304095] | 62.3336

SMILES | % of control remaining
CC(=O)Nc1ccc(-c2cncc(N(CCO)CCO)n2)cc1 [CBK065789] | 134.803
COc1cccc(CCNCC(O)COc2ncnc3ccccc23)c1 (stereo not drawn) [CBK028127T] | 103.423
CCN(CC)CCN1CCN(c2cc(-c3cccnc3)ncn2)CC1 [CBK036957] | 60.6285
O=C(NCCc1c[nH]c2ccc(Cl)cc12)c1ccc(Cl)cc1Br [CBK159755] | 27.044
O=C(NC(c1ccc(-c2ccccc2)cc1)c1cnccn1)C1CCN(CCCN2C(=O)C3CCCCC3C2=O)CC1 (stereo not drawn) [CBK147856] | 84.7539
CC1=C(C(=O)Nc2ccccc2)C(c2ccccc2)C(C#N)=C(SCc2ccncc2)N1 (stereo not drawn) [CBK267448] | 100.882
O=C(Nc1cccc(Cl)c1Cl)c1cnccn1 [CBK288243] | 70.9411
Cc1cc(C)c2c(n1)oc1c(Cl)ncnc12 [CBK008822] | 54.4015
CCn1c(SCC(N)=O)nnc1C(C)Oc1ccc(C)c(C)c1 (stereo not drawn) [CBK270289] | 92.5718
CCN1CC2(CCCN(Cc3cncn3C3CCCCC3)C2)CCC1=O (stereo not drawn) [CBK307223] | 66.7826
Nc1nnc(C(F)(F)F)o1 [CBK023457] | 59.8956
O=C(COc1ccccc1)N1CCN(Cc2ccccn2)CC1 [CBK073265G] | 103.699
COc1ccc([C@@]23CCN(C(=O)Nc4ccc(F)c(F)c4F)C[C@@H]2CN(C)C3)cc1OC [CBK074305T] | 67.0639
COC(=O)c1ccc(N2CCN(Cc3cnoc3C)C(C)C2)cc1 (stereo not drawn) [CBK306442] | 51.8715
COCCN1C(=O)C2(CC(=O)N(CCOc3ccccc3)C2=O)c2ccccc21 (stereo not drawn) [CBK075322] | 90.8154
Cc1ccc(S(=O)(=O)NCCN2CCN(S(=O)(=O)c3ccc(C)cc3)CC2)cc1 [CBK265461] | 119.902
Cc1ccc(N2CCCn3c2nc2c3c(=O)n(CC(=O)O)c(=O)n2C)cc1 [CBK286740] | 68.9567
COC(=O)Cc1ccc(NC(=S)N2CCC(C(N)=O)(N3CCCCC3)CC2)cc1 [CBK266101] | 87.153
